Laboratory results published in US20220073613A1, “ACTIVATABLE MASKED ANTI-CTLA4 BINDING PROTEINS” (Xilio Development, Inc., priority 2018, published 2022).

Molecular target: human CTLA4-Fc (R&D Systems, #7268-CT) (human) (UniProt P16410)
Experiment: ELISA: plate coated with human CTLA4-Fc (R&D Systems), detection anti-huKappa-HRP, chemiluminescence; masked antibody 1 after overnight incubation with Matriptase (Example 5)

UniProt P16410, sequence (P16410 36-162 limits assumed): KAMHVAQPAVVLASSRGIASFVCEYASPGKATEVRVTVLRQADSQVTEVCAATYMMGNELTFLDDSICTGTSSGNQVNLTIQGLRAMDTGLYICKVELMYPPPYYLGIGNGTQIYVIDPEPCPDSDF

EC50 (read off the curve): 1 nM
B1: humanized masked anti-CTLA4 antibody 1 after protease activation (Matriptase) (antibody, part only; not given: cleaved mask remnants unclear, not shown: another chain or arm of the molecule; small tags and cut ends)
light: DIVMTQTPLSLSVTPGQPASISCRSSQSLLNSDGNTYLYWYLQKPGQSPQLLIYLVSKLGSGVPNRFSGSGSGTDFTLKISRVEAEDVGVYYCVQGTHDPWTFGGGTKVEIKRTVAAPSVFIFPPSDEQLKSGTASVVCLLNNFYPREAKVQWKVDNALQSGNSQESVTEQDSKDSTYSLSSTLTLSKADYEKHKVYACEVTHQGLSSPVTKSFNRGEC
heavy: QVQLQESGPGLVKPSETLSLTCSVTYHTITSGYDWTWIRKPPGKGMEWIGYISYSGNTNYNPSLKSRVTISRDTSKNQFFLKLSSVTAADTAVYYCASMMVPHYYVMDAWGQGTLVTVSS[human IgG1 constant region left out here]
